{"source": "the supplement of paper PMC12632987", "binders": {"B1": {"name": "traf2_out_20_3_2064 (protein)", "chain": "SELEEELEEELERALELLEEAAEAADPETAARLEELRERLEASRELSYDDRLVELSEIRRELLELAEEARARGDEELARLLEEAADALNRAMQLTYQIIQ"}, "B2": {"name": "traf2_out_11_155_734 (protein)", "chain": "SARREAQRAINDHALEIGDELVKYVKEIIKKVAEKNPEDAKKLEEIFNKHLKFSNRSAALAVADKLKELGYEEEAKELEKKIEEANKEASAFVKEVEAKL"}, "B3": {"name": "traf2_out_15_17_1303 (protein)", "chain": "KISPEDARALTDKALEARDQAKALVAEVLATLTAKGKLTPEQKAELEALLAEPGVSLHVYRDRITAILEAAGEEELKKEATAKLDALIDDVNALANKVLA"}, "B4": {"name": "traf2_out_8_144_2540 (protein)", "chain": "HMTKRELANELANVLVELDELKELADEETKEVLTKARREVGQALNLVVFGGEKEEILKELEEAAKYLKEAIKLVEDNEELKKKAEEALKKVKEIIKDVKE"}, "B5": {"name": "traf2_out_13_95_1150 (protein)", "chain": "SAETAKKIMEVADEMVDKVIEILEKLLEEAKKKGIPTEPIQEALDLAKYRSINEAIHKLEELAKEYPEMKEELEKAIKEIKAIRREAGRKVAEIIKEEKA"}, "B6": {"name": "traf2_out_6_156_2410 (protein)", "chain": "MVDAIFKEALEKIEKEIKKLSEASEEKKIKYISNIAGTVYRALQQLRDAGASLAEIEAFAKKLKAEIEKKLKEAGLPEDTINLVLSSINAVFDVAIADAK"}, "B7": {"name": "traf2_out_1_27_998 (protein)", "chain": "SDEEFRALLRELDRAIARLSFEEALEAVREAIRRALEIGIGDAEHAAVVAVLSLSEEEEVERVLEVIREVLEEEGVSEEEIERIERKARTGFELLQKALA"}, "B8": {"name": "traf2_out_20_38_2040 (protein)", "chain": "EEEKEEEERLLEIAKKATEVADKTEAWVEEKLAAGVSPEEIIAETKKLITEKLAAIGKEEEAKELIERLDTLAAAGEVRRGVVLVMARAAAIVYQKEQEE"}, "B9": {"name": "traf2_out_17_178_1660 (protein)", "chain": "TKEEYRKKISELTDKLIDLAEKAAQKALELLEAEGDASEEELAQLREAQRRGSANDVKALIKRWIPKSSNSEELQALLDEFEKEYRKLSKEIAEAYKKYE"}, "B10": {"name": "traf2_out_18_64_1955 (protein)", "chain": "SELDEEIDRLVDEMDERRRLRLALARALQARAAADPAWQPLLDYFHAHVNDIGAAGARRMLALLAAGAPPAELRAVMEEDLGEGRELQRRLAELLEKREK"}, "B11": {"name": "traf2_out_20_3_2069 (protein)", "chain": "EELLKEAEKELEKAIKLLKEAAKKADKETAKKLKKLIEKLKKSKELSVDDRLVVVSEVRREVRELAEKAKKAGKEELAKILEKAAEELNRAAQLLYKILE"}, "B12": {"name": "traf2_out_11_169_776 (protein)", "chain": "EEAEKNRKINDKALELNDEAKKELEKEALALAKEEGLDVEEIKKIFEENKNKSLSAVAAALIEYFKSKGKEDAAKKILEKYEELKEKINKESSEFIKSLE"}, "B13": {"name": "traf2_out_11_155_692 (protein)", "chain": "EKKRELNNELVDEMTEIEDKLKEEVLKIVREAAAAHPEHKAELEALIASSKGLSGRSFARQAAQLFKRLGLEEEAARVEELLEKAQKEMNEAYKKIEAKI"}, "B14": {"name": "traf2_out_20_3_2107 (protein)", "chain": "KELEEELEKELEEAIKLLEEAAKLADEETAKRLEELRKRVEASRELPYTDRLVALSEVRREVLALAQEAEAAGKEELAKVLEEAADELNKAMNLLMKIIE"}, "B15": {"name": "traf2_out_11_104_644 (protein)", "chain": "LTKEQARELNDFAMEANDKAKELLAEVAAFLEERGHEEEAARVKAALAHPGAGASTFRNLLEELLPKLDEEAKEKAEEAIEKIEELIKEVSKKLNELEKK"}, "B16": {"name": "traf2_out_16_104_1379 (protein)", "chain": "EEERRKEFEEIIERLREIAERAGRLANEIYKLMETASPEEKKKLSDLLVEVSELRRRALQAAEEAERALKEGGDLEEFRKRLEELEKRLKELEERVKKLK"}, "B17": {"name": "traf2_out_13_95_1138 (protein)", "chain": "SKETAEKIMEVADKMLEKVEEILNELLEIAKKKGKLEKEIEEVLHTARYRSINEAIHLLKELSKKYPEFKEELDKAIKEIEEIRREAGREVAKILKEAKE"}, "B18": {"name": "traf2_out_16_104_1412 (protein)", "chain": "AAAKDAAFEAIIAELNAIADRAGRLANRVYNLMLTASPEDRKKLSDLLVKASELRREALAAAQAVEEGRKAGADLAEARATLAALTARLEALEKELKALE"}, "B19": {"name": "traf2_out_18_117_1790 (protein)", "chain": "SRREELIKELEEIAERLGRAASRLGKAVLENWDKLTQEEKSEAMDVLADLTEVRREALELIHKIKTENIPVEEAEKRLKELRERAEKAIKAAEERIKKIE"}, "B20": {"name": "traf2_out_17_162_1555 (protein)", "chain": "MELEERLEELKEELERLEKELKRLEEKLKKLEELSKEELTDLLVEASELRRRALELALELEELREEVGEEEMEELIERARRLAEEFQRIANEIYKELLKK"}, "B21": {"name": "traf2_out_15_48_1339 (protein)", "chain": "SVEELREVAREIADEIDAEKDRIAEELEKLLPKAKPEVQKLLKEAIDAAKNGRGNNTVIALLDELEPKLDPEQQKIVTELRDRLRAVNRAASRRMAEVLK"}, "B22": {"name": "traf2_out_3_89_2300 (protein)", "chain": "MEEEEKKIEEAKKRAEAYAKGFEKSLTFVAKEMIKDGHSLETLEGVANSAKTALAEVFRESLKEEGLSEEKIKELVEEFTKKLDEIVKKVIEEAKKKRKE"}, "B23": {"name": "traf2_out_3_89_2290 (protein)", "chain": "MEERERKIEEARERAERYVRGFEKNARRVMKEMLAEGHSLETLEGVLKAARTAIVEVFRETLKEEGIDEETRAELVAELEERLDAIVERVVAEAKERRAA"}, "B24": {"name": "traf2_out_20_3_2068 (protein)", "chain": "EELEKELEEALEKALALLKKAAALADPETAAELDALIKELKASKELSVSDRLVAVSAVRRRVLRLAEEAEAAGDAELAAVLNKAADALNRAAQLLYQILQ"}, "B25": {"name": "traf2_out_11_169_884 (protein)", "chain": "EEAEKNREFNDFALELNDEAKEKLLEFAKELAKKLGLDVEEVEKIYEENKNKSLSYLASKLIEYFRSKGKEDAAKAVEEKYEELKEEINKKGTEKMKELE"}, "B26": {"name": "traf2_out_11_104_645 (protein)", "chain": "LTREQAREFNDFAMKKRDEALKLAKEVAKFLKEKGHEEEAAEVEKALAHPGTGPSSLKNLLEELLPKLDEESKKKAEKAIEEIEKLIKEASKKLNELEEK"}, "B27": {"name": "traf2_out_20_3_2245 (protein)", "chain": "EELREKAKEYLEKARELLKKVEPLLKPEDAAELKELLEKAEEAFETDLTDALVYLSELRRKALELAEEARAAGDEETAALLEELAEAVGKAANYIYKIVE"}, "B28": {"name": "traf2_out_13_95_1098 (protein)", "chain": "SAEVAKKIMEIADEMLDKVEEILEELLKKAKEAGKLEKEVQEALDLAKYRSINEAIHKLEELAKKHPEFKEEYNEAIEKIKALRREAGRKVAEILKEEEE"}, "B29": {"name": "traf2_out_8_15_2546 (protein)", "chain": "SSFESNVARAKRALEKAGYTEESVLRNVRAMMRHTLRTTKELIERGEVEEARALSNSMFSIARAMLEAYAELHPEAKEAMEKALEEVDKVEEEVKKLLEE"}}, "note": "In all, about 1,800 sequences were measured (“median log2 fold change of GCK-ALFA target abundance (FLAG IP / Myc IP barcode read proportion)”: median about 0.14, lowest 2% from about -0.84 on). The list shows a part of the results.", "data": [{"molecular_target": "T1, TRAF2, Q12933", "T1 chain": "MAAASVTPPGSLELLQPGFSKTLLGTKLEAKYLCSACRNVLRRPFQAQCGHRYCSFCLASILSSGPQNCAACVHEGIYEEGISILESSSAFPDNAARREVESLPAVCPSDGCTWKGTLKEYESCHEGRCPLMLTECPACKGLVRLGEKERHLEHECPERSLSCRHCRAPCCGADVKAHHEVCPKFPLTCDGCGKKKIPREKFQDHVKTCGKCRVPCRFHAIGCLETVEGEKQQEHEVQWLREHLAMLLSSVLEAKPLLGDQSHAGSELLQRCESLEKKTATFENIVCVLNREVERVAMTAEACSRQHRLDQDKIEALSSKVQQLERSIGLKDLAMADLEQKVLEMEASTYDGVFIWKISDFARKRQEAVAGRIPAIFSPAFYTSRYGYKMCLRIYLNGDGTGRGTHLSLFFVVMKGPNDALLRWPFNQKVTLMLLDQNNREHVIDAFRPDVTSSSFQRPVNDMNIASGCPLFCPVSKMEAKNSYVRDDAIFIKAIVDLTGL", "assay": "median log2 fold change of GCK-ALFA target abundance (FLAG IP / Myc IP barcode read proportion) (log2 ratio); each designed protein is fused to an ALFA-tag nanobody in HEK293 cells to bring the named protein to FLAG-tagged glucokinase (GCK); Myc marks an untargeted standard; higher = target protein stabilised (more abundant)", "details": "target protein: 3xFLAG-MCP-GCK-ALFA reporter; HEK293 landing pad (RPLP)", "procedure,_shortened": "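An ALFA-nanobody-fused binder library was recombined into HEK293 landing-pad cells and induced with 2 μg mL^−1 doxycycline. Cells were transfected with a plasmid expressing a FLAG-tagged target and a Myc-tagged standard. After 48 h, lysates underwent anti-FLAG and anti-Myc immunoprecipitation, and circular RNA barcodes were reverse transcribed, amplified and sequenced. Target abundance is the per-binder median log2 ratio of FLAG to Myc barcode read proportions. Barcodes needed ≥10^−7 proportion in both replicates, binders ≥3 barcodes per replicate, and a 10^−6 pseudocount was added; the two replicates were pooled.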", "values": [{"binder": "B1", "median log2 fold change": 0.123}, {"binder": "B2", "median log2 fold change": 0.0774}, {"binder": "B3", "median log2 fold change": 0.211}, {"binder": "B4", "median log2 fold change": -0.00265}, {"binder": "B5", "median log2 fold change": -0.837}, {"binder": "B6", "median log2 fold change": 0.298}, {"binder": "B7", "median log2 fold change": -0.273}, {"binder": "B8", "median log2 fold change": 0.281}, {"binder": "B9", "median log2 fold change": -0.0358}, {"binder": "B10", "median log2 fold change": 0.163}, {"binder": "B11", "median log2 fold change": 0.339}, {"binder": "B12", "median log2 fold change": 0.418}, {"binder": "B13", "median log2 fold change": 0.102}, {"binder": "B14", "median log2 fold change": 0.327}, {"binder": "B15", "median log2 fold change": 0.393}, {"binder": "B16", "median log2 fold change": 0.102}, {"binder": "B17", "median log2 fold change": -0.826}, {"binder": "B18", "median log2 fold change": 0.118}, {"binder": "B19", "median log2 fold change": -0.104}, {"binder": "B20", "median log2 fold change": 0.252}, {"binder": "B21", "median log2 fold change": 0.217}, {"binder": "B22", "median log2 fold change": -0.622}, {"binder": "B23", "median log2 fold change": -0.754}, {"binder": "B24", "median log2 fold change": -0.0614}, {"binder": "B25", "median log2 fold change": 0.298}, {"binder": "B26", "median log2 fold change": 0.284}, {"binder": "B27", "median log2 fold change": 0.264}, {"binder": "B28", "median log2 fold change": -0.841}, {"binder": "B29", "median log2 fold change": -0.64}]}]}
